Screen size: about 150,000 compounds; about 540 (0.36%) showed an effect of 50% or more. The list shows a part of the results.
System: Plasmodium falciparum
Experiment: Primary screen in NF54 nanoGlo assay, in single point, at 2uM, 72h; a lower Z score goes with more inhibition
Format: functional, Erythrocyte
Details: timepoint 72 hour

SMILES	% Inhibition	Z score
CC(C)Cn1ncc(C(=O)N2CCCN(Cc3cnn(C)c3)CC2)c1C1CC1	-8%	0.94
CC(=O)N1CC2(CCN(c3nc(C)cc(C)n3)CC2)[C@H]2COC[C@H]21	-9%	1.35
CC(=O)Nc1ccc(S(=O)(=O)NCc2ccc(C(=O)N(C)C3CCCCC3)cc2)cc1	-8%	1.46
CC(=O)N1CCCN(C(=O)c2cn3ccc(C)cc3n2)CC1	0%	0
Cc1ccc(CN2CCNC(=O)[C@@H]2CC(=O)Nc2ccc3oc(C)cc3c2)o1	-3%	0.49
COc1ccc(-c2cc(C(C)=O)c(C)n2CCC(=O)NC2CCCC2)cc1	-1%	0.19
O=C(c1cccc2nn[nH]c12)N1C2CCC1CC(CC(F)(F)F)C2 (stereo unspecified)	6%	-0.66
O=C(NCC[C@@H](CCO)c1ccccc1)C(=O)Nc1ccon1	-3%	0.45
COc1cc2c(cc1Cl)CN(Cc1cc(C)on1)CC2	-5%	0.89
CC(C)CC(C)OC(=O)N1CCCCC1CNS(N)(=O)=O (stereo unspecified)	-6%	0.85
CCCCn1ncnc1[C@H](C)n1cnc2ccccc2c1=O	-3%	0.36
c1cncc(COc2cccc(-c3noc(-c4cnccn4)n3)c2)c1	-27%	2.72
Cc1ccccc1CC(=O)N[C@@H](C)c1nnc2n1CCCCC2	-12%	1.53
O=C1N(CCCc2ccccc2)CCC[C@@]1(O)CN1CCC(CCO)CC1	6%	-0.81
O=C(c1ccc(Cl)cc1)N1CCCN(c2nc(C3CC3)nc3c2cnn3-c2ccccc2)CC1	-14%	1.47
CCCn1nccc1S(=O)(=O)N1CCOC(C)(C)C1	0%	0.07
Cc1ccc(CCNC(=O)Cn2nc(C)c(C)cc2=O)o1	-5%	0.75
C=CCN(C)C(=O)c1c(F)cc(F)cc1F	-2%	0.22
COc1ccc(C2C3C(C)=NN=C3CC(C)(O)C2C(C)=O)cc1 (stereo unspecified)	-1%	0.13
CCOC(=O)N1CCN(Cc2cnoc2-c2cccc(OC)c2)CC1	0%	0.09
O=c1[nH]c(N2CCC(N3CCCC3)CC2)nc2c1Cc1ccccc1OC2	1%	-0.21
Cc1csc(S(=O)(=O)N[C@H]2CCOC[C@@H]2OCc2ccccc2)c1	-10%	1.04
CCn1nc(CC(C)C)cc1C(=O)N1CCc2ncccc2C1	-7%	1.05
O=C(c1ccc(NCCc2ccccn2)cc1)N1CC[C@H](CCO)C1	1%	-0.1
Cc1ccc(NS(=O)(=O)c2c(C)[nH]c(C)c2-c2nnc(C3CCC3)o2)c(C)c1	-15%	2.95
N#CC1(c2nc3ccccc3[nH]2)Cc2c(F)cccc2N2CCCC21 (stereo unspecified)	-9%	1.06
CO[C@H]1[C@H](NC(=O)c2ccncc2)c2ccccc2C12CCN(C(=O)Cc1c(F)cccc1F)CC2	-5%	0.98

SMILES	% Inhibition	Z score
CC(C)[C@@H]1CCCCN1C(=O)CCc1ccccn1	-12%	1.77
Cc1ccc(OCc2ccc(C(=O)N[C@H]3CCc4c(nc(C)n4CCO)C3)o2)c(C)c1	6%	-0.66
Cc1nc(C2CC2)nc(N2CCN(C(=O)N(C)C)CC2)c1Cc1ccccc1F	34%	-4.29
Cc1ccccc1N(C(=O)[C@H]1CCOC1)C(C)C	-14%	2.17
O=C(COc1cccc(N2C(=O)C3C4CCC(C4)C3C2=O)c1)c1ccccc1 (stereo unspecified)	-13%	2.01
COc1ccc(N2CCN(c3ccc(OC)cc3)C2c2ccco2)cc1	-14%	1.95
O=C(CCc1nc(-c2ncccn2)no1)N(C1CCC1)C1CCC1	2%	-0.28
O=C(Nc1ccc(Br)cc1)C1CCN(c2cc(C(F)(F)F)ncn2)CC1	-6%	0.67
O=C(Nc1ccc(N2CCN(C(=O)c3cccc(F)c3)CC2)nc1)c1ccc(F)cc1F	-14%	2.61
CCCN(C(=O)c1n[nH]c(C)c1C)C1CCN(c2cc(C)nc(C)n2)CC1	7%	-0.86
O=c1[nH]nc(CN(CCCN2CCOCC2)c2ccccc2)s1	-11%	1.38
CC(C)(C)O[C@@H](C(=O)N1CCc2cnccc21)c1ccccc1	-6%	0.53
N#Cc1cccc(S(=O)(=O)Nc2ccccc2N2CCOC2=O)c1	1%	-0.17
CCOc1ccc(-n2c(CN3CCN(C(=O)Nc4cccc(OC)c4)CC3)nc3cccnc32)cc1	-4%	0.47
COCCCNC(=O)[C@H]1CCCN(C(=O)c2nnc(C(=O)Nc3ccccc3)s2)C1	-5%	0.48
O=C1CN(C(=O)c2ccc(S(=O)(=O)N3CCCC3)cc2)c2ccccc2N1	-8%	1.06
COC[C@@H](O)CN(Cc1ccc2c(c1)OCO2)Cc1c(-c2ccccc2)noc1N1CCCCC1	-7%	0.89
C[C@@H](C(=O)O)N1CCc2cc(-c3ccccc3)oc2C1	-8%	0.9
CC1(C)CC[C@@H](c2nc(-c3cnc(C4CC4)nc3N)no2)O1	0%	-0.04
Cn1ccnc1CN(CCO)C(=O)CCc1cn2ccccc2n1	-16%	3.39
Cc1cc(C)nc(NCCc2ncccc2C)n1	-3%	0.49
Cc1cccc(NC(=O)CN2CCN(c3ccnc4nncn34)CC2)c1C	20%	-2.52
Cc1ccccc1CC(=O)N1CCC(C2(c3cccnc3)NC(=O)N(CC3CCCO3)C2=O)CC1 (stereo unspecified)	-13%	1.69
O=C(Nc1ccc(Br)cc1F)c1cccnc1O[C@H]1CCOC1	3%	-0.5
COc1cccc(CNC(=O)CCn2cnc3c(-c4ccc(C)cc4)noc3c2=O)c1	4%	-0.66
CC1CCN(Cc2nnnn2CC(=O)N2CCN(Cc3nccn3C)CC2)CC1	-12%	1.14
